In all, about 13,000 compounds were measured (“IFI”: median about 4, highest 2% from about 17 on). This is one part of the list.

The test in a line: GSK_TCMDC: Inhibition Frequency Index (IFI). The number of non-kinase HTS assays where a compound showed > 50 % inhibition, expressed as a percentage of the number of such assays in which the compound was tested (-0 is zero). In kind it is functional.
The compound `Cc1ccc(OCC2CCN(c3ncc(C(=O)NCCCN4CCCC4=O)cc3Cl)CC2)cc1` yielded an IFI of 1.85%.
In the case of `CCN1CCc2nc3ccccc3c(C(=O)Nc3ccc(C#N)cc3)c2C1` it was -0%.
In the case of `COC(=O)c1cccc(CNCc2cccc(-c3ccc(-c4nc5cc(C(F)(F)F)ccc5[nH]4)cc3)c2)c1` it was 5.94%.
Then `CC(CN(C)C)C(=O)Nc1ccc(-c2ccc(-c3nc4ccccc4[nH]3)cc2)cc1` (stereo unspecified), with 2.73%; and `NC(=O)c1cccc(Nc2nccc(Nc3ccc(Oc4c(Cl)cccc4Cl)c(Cl)c3)n2)c1`, with 6.57%.
With `Nc1ncc(-c2cc3ccccc3o2)c(N)n1`, the IFI stood at 1.41%.
Then `COc1cc(NC(=O)C(c2ccc(Cl)cc2)C(C)C)cc(OC)c1` (stereo unspecified), with 2.27%.
In the case of `Cc1c(-c2cccc(Br)c2)[nH]c2nc(N)nc(N)c12` it was 3.52%; in that of `N#Cc1cccc(NC(=O)Nc2ccc3c(c2)CCN(C2CCC2)CC3)c1`, 0.79%; in that of `CNC(=O)NC1CCN(Cc2c(-c3cccs3)nc3ccccc3c2C(=O)N[C@@H](C)C2CCCCC2)CC1`, 1.48%.
In the case of `CCCCCOc1ccc(N2C(N)=NC(N)=NC2(C)C)cc1` it was 2.19%.
`CCc1cccc2c(C#N)cn(CC(=O)NCCc3ccccc3)c12` gave an IFI of 0.95%.
In the case of `CN1CCN(c2ccnc3ccc(NC(=O)Nc4c(Cl)cccc4Cl)cc23)CC1` it was -0%; in that of `CC(CN(C)C)C(=O)Nc1cccc(-c2ccc(-c3nc4ccccc4[nH]3)s2)c1` (stereo unspecified), 0.92%; in that of `CCn1ccc2c(N3CCCC3=O)cc(C(=O)N[C@@H](Cc3ccccc3)[C@H](O)CNC3CCCCC3)cc21`, 0.76%.
`O=C1OC2(CCN(C(=O)c3ccc(-n4cnnn4)cc3)CC2)CN1Cc1ccc(Cl)c(Cl)c1` registered an IFI of -0%.
Then `N#Cc1cc([N+](=O)[O-])ccc1-n1nc(-c2cccc(Cl)c2)n(Cc2ccco2)c1=S`, with 5.44%.
Then `Cc1cc2nc(-c3ccc(OCC(=O)NCc4ccc(C(C)(C)C)cc4)cc3)[nH]c2cc1C`, with 3.01%.
`O=C(C=Cc1cn(-c2ccccc2)nc1-c1cccs1)N1CCN(c2ccncc2)CC1`: the IFI turned out to be 14.6%.
The compound `COc1ccc(-c2cccc(NC(=O)c3cccc(Cl)c3)c2)cc1CN1CCCN(C)CC1` showed an IFI of 7.77%.
In the case of `C[C@H](Cc1ccc(OCCCCCCCOc2ccc(C[C@@H](C)NC[C@H](O)c3cccc(Cl)c3)cc2)cc1)NC[C@H](O)c1cccc(Cl)c1` it was 22.1%; in that of `COc1ccc(NS(=O)(=O)c2ccc(Oc3nc(C)nc4sc5c(c34)CCCC5)cc2)cc1`, 8.08%.
Then `CCN(CC)CCCC(C)Nc1ccnc2cc(Cl)ccc12` (stereo unspecified), with 0%.
Regarding `O=C(Nc1ccc(C(F)(F)F)cc1)Nc1cccc([N+](=O)[O-])c1`, the IFI worked out at 19.1%.
Then `COc1ccccc1C1CCN(C2CCC(NC(=O)c3cc4cc(C(C)C)ccc4[nH]3)CC2)CC1` (stereo unspecified), with 18%; and `COc1ccc(NC(=O)NC2CCN(CCCCCNC(=O)/C=C/c3ccc(Cl)c(Cl)c3)C2)c(OC)c1` (stereo unspecified), with 3.42%.
In the case of `CCn1c(-c2nonc2N)nc2cnc(Oc3cccc(NC(=O)c4ccc(OCCCN5CCCCC5)cc4)c3)cc21` it was 4.72%.
Then `CC1(C)[C@H]2CC[C@@H](CNc3nc(NCCc4c[nH]cn4)nc(Nc4ccc(Oc5ccccc5)cc4)n3)[C@@H]1C2`, with 2.19%; and `Nc1nc(N)c2cc(Cc3ccc([N+](=O)[O-])cc3)cnc2n1`, with 0.85%; and `COc1ccccc1C1CN(Cc2coc3ccccc3c2=O)Cc2ccccc2O1` (stereo unspecified), with 5%.
For `O=C(Nc1ccc(C(=O)N(Cc2ccc3c(c2)OCO3)C2CCCC2)cc1)c1cccs1`, the IFI came to 2.27%.
In the case of `N#Cc1ccc(-c2ccc(C(=O)NC3CCN(CCN4CCc5c(cccc5C(F)(F)F)C4)CC3)cc2)cc1` it was 8.06%; in that of `Fc1ccc2[nH]c(-c3cccc(-c4ccc(CN5CCN(CCN6CCOCC6)CC5)cc4)c3)nc2c1`, 4.23%; in that of `C[C@@H](COc1ccc(-c2ccccc2)cc1)CON1C(N)=NC(N)=NC1(C)C`, 7.19%.
Then `CC1(C)NC(N)=NC(=N)N1OCCCOc1ccccc1N`, with 2.26%.
In the case of `Oc1ccc2[nH]c(-c3ccc(OC(F)(F)F)cc3)nc2c1CNC1CCCC1` it was 5.81%; in that of `O=C(Nc1ccc(-c2nc3ccccc3[nH]2)cc1)c1cccc(S(=O)(=O)N2CCOCC2)c1`, 2.67%; in that of `CCC(CC)n1c(C)cc2c3c(N)nc(N)nc3ccc21`, 3.73%.
Regarding `Cc1nc(C)c(-c2ccc(Oc3ccc(OC(F)(F)F)cc3)cc2)c(OC(=O)c2ccc(CN(C)C)cc2)c1Cl`, the IFI amounted to 2.33%.
Then `Cc1cccc(-c2nn(-c3ccccc3)c3[nH]c(=O)c(CNC4CCCC4)cc23)c1`, with 4.46%; and `Oc1ccc2[nH]c(-c3cccc(F)c3)nc2c1CN1CCC(O)(c2ccccc2)CC1`, with 5.66%.
In turn, `CCNc1cc(C(=O)N[C@@H](Cc2ccccc2)[C@H](O)CNCCc2cc(OC)cc(OC)c2)cc(N2CCCCS2(=O)=O)c1` showed an IFI of 2.29%.
In the case of `COc1cc(-c2cc(-c3ccc(OCCN(C)C)cc3)[nH]c2-c2ccncc2)ccc1Cl` it was 4.51%.
In the case of `CCc1c[nH]c2c(N3CCCC3=O)cc(C(=O)N[C@@H](Cc3ccccc3)[C@H](O)CNC(C)(C)c3cccc(OC)c3)cc12` it was 1.43%; in that of `NC1=NC2(CCCCC2)N(OCCCCCCN2C(=O)c3ccccc3C2=O)C(N)=N1`, 1.43%; in that of `CO/C(=C\C=C\c1cc2cc(Cl)c(Cl)cc2[nH]1)C(=O)NCCCN1CCN(c2cccc(OCC(=O)Nc3ccccc3)c2)CC1`, 7.03%.
In the case of `Cc1cc(Nc2ccc(Oc3ccc(Cl)cc3)cc2)nc(N)n1` it was 7.53%.
In turn, `Cc1cccc2nc(-c3ccc(-c4cccc(NC(=O)C(C)CN(C)C)c4)cc3)[nH]c12` (stereo unspecified) displayed an IFI of 8.11%.
In the case of `Cc1ccc(Nc2nnc(SCC(=O)Nc3ccc(CN4CCCC4)cc3)s2)cc1` it was 1.89%; in that of `CC(C)C1=CC(=NOS(=O)(=O)c2ccccc2)C=C(C(C)C)C1=O`, 6.77%; in that of `CC(CNCc1cn(Cc2cc(Br)cc(Br)c2)c2ccccc12)CNc1cc(=O)c2ccccc2[nH]1` (stereo unspecified), 13.2%.
Then `CCC(=O)Nc1cc(=O)[nH]c2nc(-c3ccc(Cl)cc3)nn12`, with 1%.
In the case of `COc1ccc2nccc([C@@H](O)CN3CCC(NCCOc4cccc(F)c4F)CC3)c2c1` it was 1.59%; in that of `O=S(=O)(NCCN1CCCC1)c1ccc(-c2ccc(CNCc3ccccc3)cc2)cc1F`, 6.54%; in that of `Cc1cccc2nc(-c3ccc(-c4ccc(CN5CCN(CCN6CCOCC6)CC5)cc4)s3)[nH]c12`, 2.82%.
`CCN(CC)CCN(Cc1ccc(-c2ccc(C(F)(F)F)cc2)cc1)C(=O)Cn1c(CCc2c(F)ccc(F)c2F)nc(=O)c2ccccc21` registered an IFI of 9.09%.
In the case of `CN(C)/C(=N/C(=N)NCc1ccc(Cl)c(Cl)c1)NCCCCCCN/C(=N\C(=N)NCc1ccc(Cl)c(Cl)c1)N(C)C` it was 11.8%; in that of `Clc1ccc(CNC2CCN(CC3CCCCC3)CC2)cc1`, 3.38%; in that of `CCOC(=O)c1c(-c2ccccc2)nc2c(sc3ccccc32)c1O`, 1.48%.
In the case of `O=C(Nc1cccc(-c2cccc(-c3nc4cc(C(F)(F)F)ccc4[nH]3)c2)c1)c1ccncc1` it was 7.41%; in that of `Clc1ccc(-c2cc3c(NCc4ccncc4)nccc3s2)cc1`, 8.7%; in that of `COc1ccc(-c2nc(NC(=O)CS(=O)(=O)c3ccccc3)sc2C)cc1`, 1.72%.
Then `CCOc1ccc(C(C)NC(=O)Cc2ccccc2F)cc1OCC` (stereo unspecified), with 0%.
On to `CCOC(=O)c1ccc(NC(=O)Nc2ccc(-c3cccc(-c4nc5ccccc5[nH]4)c3)cc2)cc1`, for which the IFI was 7%.
Compound `NC(=O)c1cccc(CN2Cc3ccccc3OC3(CCN(Cc4c[nH]c5cnccc45)CC3)C2)c1` registered an IFI of 1.64%.
In the case of `COc1cccc(NC(=O)Nc2cc(C)nc3ccccc23)c1` it was 3.08%.
Then `COc1ccc(CN2CCCN(Cc3cccc(NC(=O)c4cc5ccccc5s4)c3)CC2)cc1`, with 9.85%; and `CCCCc1ccc(C(=O)NC2CCN(C[C@H](O)c3ccnc4ccc(OC)cc34)CC2)cc1`, with 5.93%; and `COc1cc(OC)c(NC(=O)COc2ccc(C)cc2)cc1Cl`, with 1.49%.
In turn, `Clc1ccccc1/C=C/c1cncnc1Nc1ccc2[nH]c(Cc3ccccc3)nc2c1` returned an IFI of 4.14%.
In the case of `CC1(C)C(=O)Nc2ccc3c(c21)CC1SC(=O)NN=C31` (stereo unspecified) it was 2.22%; in that of `Cc1cc(C(=O)Nc2ccc3c(c2)CCN3C2CCN(Cc3cccc(F)c3F)C2)no1` (stereo unspecified), -0%.
In the case of `CC1CN(c2ccc(NC(=O)c3cccs3)cc2)CCN1Cc1cccc(F)c1` (stereo unspecified) it was -0%.
`CC1=C(C(=O)Nc2cc3cn[nH]c3cc2F)C(c2ccc(Cl)c(NS(C)(=O)=O)c2)CC(=O)N1` (stereo unspecified) displayed an IFI of 0.89%.
Compound `CN1CCCN(Cc2cccc(-c3cccc(NS(=O)(=O)c4cccc5cccnc45)c3)c2)CC1` came in with an IFI of 9.3%.
For `CNC(=O)c1cncc(/C=C/c2ccccc2S(N)(=O)=O)c1`, the IFI amounted to 0%.
In the case of `CC(C)(CNC(=O)/C=C/c1ccc(C(F)(F)F)cc1)CNc1cc(=O)c2ccccc2[nH]1` it was 4.35%; in that of `O=C(Nc1cccc(Cl)c1Cl)Nc1ccnc2ccccc12`, 5.76%.
In the case of `Nc1c2c(nc3ccc(C(=O)Nc4ccc(Br)cc4)cc13)CCCC2` it was 9.03%; in that of `CN(C(=O)c1cc2c(-c3cncnc3)cccc2[nH]1)c1ccccc1`, 2.56%.
Then `CC(C)(C)OC(=O)NCC(=O)N(Cc1ccccc1)Cc1ccccc1`, with 1.57%; and `CCOC(=O)c1ccc(NC(=O)N[C@@H](Cc2ccc(O)cc2)C(=O)NC2CCN(Cc3ccc4c(c3)OCO4)CC2)cc1`, with 2.7%.
In the case of `NCC(NC(=O)c1ccc(-c2c[nH]c3ncccc23)s1)c1ccccc1` (stereo unspecified), the IFI came out at 16.1%.
`O=C(Nc1cccc(Cl)c1N1CCOCC1)C(Cl)(Cl)Cl` returned an IFI of 1.64%.
In the case of `COc1ccc2nccc([C@@H](O)CN3CCC(NCc4cn5cc(F)ccc5n4)CC3)c2c1` it was -0%.
Then `CCSc1nnc(C2CCCN(CC(=O)Nc3cc(C(F)(F)F)ccc3Cl)C2)n1CC` (stereo unspecified), with 4.55%.
Then `Cc1nnsc1C(=O)Nc1cccc(-c2ccc(-c3nc4cc(C(F)(F)F)ccc4[nH]3)cc2)c1`, with 8.11%; and `CCN(CC)CCNc1ccnc2ccc3ccccc3c12`, with -0%; and `COc1ccc(C2=[N+]([O-])c3ccccc3C2=O)cc1`, with 2.16%.
The compound `COc1ccccc1NC(=O)OC(COc1ccc(N)cc1)CN1CC=C(c2ccccc2)CC1` (stereo unspecified) gave an IFI of 1.57%.
Then `NC1CCN(Cc2cccc(-c3ccc(-c4nc5cc(C(F)(F)F)ccc5[nH]4)cc3)c2)C1` (stereo unspecified), with 2.82%.

Source of the values: ChEMBL document CHEMBL1157539, “Thousands of chemical starting points for antimalarial lead identification” (Nature, 2010).
